Measured values reported in the RNAGym collection of RNA variant scans (doi:10.1093/nar/gkz1192).
The source gives no read counts; variants with many changes may rest on few reads.

B1: CPEB3 Ribozyme (parent)
chain: UAACAGGGGGCCACAGCAGAAGCGUUCACGUCGCAGCCCCUGUCAGAUUCUGGUGAAUCUGCGAAUUCUGCUGUAUAUCUC

Variants of: B1
Assay: self-cleavage, relative activity (ratio to wild type); higher = more cleavage; in vitro, sequencing
Outline: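 Libraries of CPEB3 self-cleaving ribozyme mutants came from rounds of error-prone PCR and carried barcodes, which DNA sequencing matched to variants. In vitro transcription used T7 RNA polymerase at 37°C for 5 hours, with a further 15 min in DNase I before EDTA stopped the reaction; the ribozymes cleaved during both steps. The RNA was reverse transcribed with template switching and sequenced on Illumina. Relative activity is the cleaved/total read fraction of a variant divided by that of the unmutated ribozyme, averaged over three batches with at least 5 reads.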
For A3G G7C A13U C37A G63A, the self-cleavage was 0.35. With A3G G7C A15U A45U A77G the self-cleavage was 0.1. Work on A3G G7C A18G A28U C32A U43C U54C yielded a self-cleavage of 0.09. In the case of A3G G7C A20U U26C C40A U51A, the self-cleavage is reported as 0.05. Work on A3G G7C A28G U41A yielded a self-cleavage of 0.09. Work on A3G G7C G8A A64G G70A yielded a self-cleavage of 0.18. For A3G G7C G24C U43C U54C U60G U67C, the self-cleavage was 0.14. A3G G7C G33U gave a self-cleavage of 0.06. A3G G7C U43A U69C showed a self-cleavage of 0.07. For A3G G7C U48C U51A U66C, the self-cleavage was 0.05. With A3G G7C U74C the self-cleavage was 0.75. Variant A3G G7U A15G U25C U48A G63U C81U has a self-cleavage of 0.05. Variant A3G G7U A45C A64G has a self-cleavage of 0.09. Variant A3G G7U U25G A28U U60C C62U has a self-cleavage of 0.07. Variant A3G G8A A13G U31A C40U has a self-cleavage of 0.13. With A3G G8A A15G the self-cleavage was 0.62. With A3G G8A A15G U25C C37G U74A the self-cleavage was 0.06. With A3G G8A A18G A64G A75G U80G the self-cleavage was 0.07. A3G G8A A21G A35G gave a self-cleavage of 0.11. Work on A3G G8A A56U U80C yielded a self-cleavage of 0.09. For A3G G8A A57G C62U U69C U78C, the self-cleavage was 0.27. A3G G8A C34U U58C C81U showed a self-cleavage of 0.07. Work on A3G G8A G10A U54A U60A U67C yielded a self-cleavage of 0.07. In the case of A3G G8A G10U, the self-cleavage is reported as 0.1. Variant A3G G8A U25C U48A G53C U60A has a self-cleavage of 0.28. Work on A3G G8A U43C U80C yielded a self-cleavage of 0.46. Work on A3G G8A U54C yielded a self-cleavage of 0.42. With A3G G8C A21G U26C C79G the self-cleavage was 0.06. Work on A3G G8C G24A A64G U80C yielded a self-cleavage of 0.11. Variant A3G G8C U26A G53C U74A U80C has a self-cleavage of 0.57. In the case of A3G G8C U26A G53U G55A U80C, the self-cleavage is reported as 0.64. Work on A3G G8U A47G C50U A56G yielded a self-cleavage of 0.47. Variant A3G G8U G9C A13U A57G has a self-cleavage of 0.08. For A3G G8U G9U A18U U26C U67C, the self-cleavage was 0.21. For A3G G8U G53A A57G, the self-cleavage was 0.31. For A3G G8U U41C U58A U80A, the self-cleavage was 0.07. Work on A3G G8U U67A U69G U72A yielded a self-cleavage of 0.06. Variant A3G G9A A20G A45G has a self-cleavage of 0.42. In the case of A3G G9A A21G C32U U72A, the self-cleavage is reported as 0.05. Variant A3G G9A A28G U31A U54C U80C has a self-cleavage of 0.1. A3G G9A A45G U49A A56G U60A U78C showed a self-cleavage of 0.06. With A3G G9A A47G U58C A65G the self-cleavage was 0.12. With A3G G9A A64G U72A the self-cleavage was 0.1. Variant A3G G9A A77G has a self-cleavage of 0.52. A3G G9A C12A A20U G22A U78C showed a self-cleavage of 0.07. A3G G9A C14U U26C A35G U76C gave a self-cleavage of 0.39. In the case of A3G G9A U26C A45G, the self-cleavage is reported as 0.35. For A3G G9A U26G A35U A65G, the self-cleavage was 0.51. A3G G9A U41A U72A showed a self-cleavage of 0.08. With A3G G9A U76A the self-cleavage was 0.43. With A3G G9C A13G A57G U80C the self-cleavage was 0.14. In the case of A3G G9C U31A, the self-cleavage is reported as 0.51. Work on A3G G9C U49C yielded a self-cleavage of 0.46. For A3G G9C U54C U60A A64U, the self-cleavage was 0.28. A3G G9U A13U A15U A20G gave a self-cleavage of 0.16. A3G G9U A15U U60A gave a self-cleavage of 0.18. For A3G G9U A18G A21G A35G, the self-cleavage was 0.15. A3G G9U A18G G30A showed a self-cleavage of 0.49. Work on A3G G9U U31A U48A A57G yielded a self-cleavage of 0.08. Variant A3G G9U U41C U66A has a self-cleavage of 0.09. A3G G9U U49C showed a self-cleavage of 0.27. In the case of A3G G10A A13U C17A A56U U67C, the self-cleavage is reported as 0.06. For A3G G10A A18G A35G U60C A77U, the self-cleavage was 0.24. A3G G10A A18U U26C U41A U51C A64G showed a self-cleavage of 0.05. Work on A3G G10A A20G U49A A57G yielded a self-cleavage of 0.07. For A3G G10A A21G C27U A28U U69A, the self-cleavage was 0.06. A3G G10A A35G A56G U72G showed a self-cleavage of 0.31. With A3G G10A A35G U72C the self-cleavage was 1.07. A3G G10A A35U G55U gave a self-cleavage of 0.22. For A3G G10A A56U U60A, the self-cleavage was 0.18. A3G G10A C12U U26C U41A U67G U72A showed a self-cleavage of 0.06. Work on A3G G10A C27U yielded a self-cleavage of 0.36. With A3G G10A C27U U60C the self-cleavage was 0.22. A3G G10A C40G U54C gave a self-cleavage of 0.31. Work on A3G G10A G19U A20G U43C yielded a self-cleavage of 0.08. In the case of A3G G10A G30A C32U A64G U74A, the self-cleavage is reported as 0.3. A3G G10A U26C A57G gave a self-cleavage of 0.64. In the case of A3G G10A U26C U67C U72A U76A, the self-cleavage is reported as 0.02. A3G G10A U41C U43C U80A gave a self-cleavage of 0.33. For A3G G10A U43C U60C U66C, the self-cleavage was 0.18. With A3G G10A U48C U49C U72C the self-cleavage was 0.07. Work on A3G G10A U49C U54A U58G yielded a self-cleavage of 0.1. A3G G10A U54C U80A gave a self-cleavage of 0.08. In the case of A3G G10C A15U U48C, the self-cleavage is reported as 0.35. A3G G10C A18U A20G U43G A47G gave a self-cleavage of 0.05. Work on A3G G10C A20G C39A G42A yielded a self-cleavage of 0.07. Work on A3G G10C A45G G46U A56G U58C U60C yielded a self-cleavage of 0.14. For A3G G10C C27U A64U U66C, the self-cleavage was 0.35. With A3G G10C U31C A45G G61A A65G the self-cleavage was 0.13. Variant A3G G10U G36A U41C U69A A77C U80C has a self-cleavage of 0.04. Variant A3G G16A A57G A64U has a self-cleavage of 0.17. Variant A3G G16A C34G has a self-cleavage of 0.1. A3G G16A G19U gave a self-cleavage of 0.29. A3G G16A G33C U54C gave a self-cleavage of 0.06. A3G G16A U31A U58C U66G A75G showed a self-cleavage of 0.05. A3G G16C A21G gave a self-cleavage of 0.51. For A3G G16C A75U, the self-cleavage was 0.12. In the case of A3G G16C C40U, the self-cleavage is reported as 0.53. In the case of A3G G16U A18G G24A G30A U41A U60C, the self-cleavage is reported as 0.08. For A3G G16U A18U A65G, the self-cleavage was 0.07. For A3G G16U A21G C38U A57G U60A G70A, the self-cleavage was 0.05. For A3G G16U A28C A57G, the self-cleavage was 0.14. In the case of A3G G16U A28G C32U U43C U67C, the self-cleavage is reported as 0. A3G G16U A28G U48C A64G gave a self-cleavage of 0.03. With A3G G16U A28G U49C the self-cleavage was 0.07. With A3G G16U C62G A75U the self-cleavage was 0.28. In the case of A3G G19A A21G U26A U54C A75G, the self-cleavage is reported as 0.14. Work on A3G G19A A28G U48C yielded a self-cleavage of 0.3. A3G G19A A35G U80C gave a self-cleavage of 0.71. Variant A3G G19A A35U U48C U51C U54C A64G has a self-cleavage of 0.27. For A3G G19A C34U U66A, the self-cleavage was 0.05. Work on A3G G19A U41A yielded a self-cleavage of 0.43. With A3G G19A U41C the self-cleavage was 0.32. Variant A3G G19C A75U has a self-cleavage of 0.61. A3G G19C G24A gave a self-cleavage of 0.42. A3G G19U A64U showed a self-cleavage of 0.31. With A3G G19U A75U the self-cleavage was 0.66. With A3G G19U U25C U60C G61A the self-cleavage was 0.11. A3G G19U U49C G55A U78C gave a self-cleavage of 0.24. Work on A3G G22A A64U yielded a self-cleavage of 0.11. A3G G22A U58A U80A gave a self-cleavage of 0.39. A3G G22C A47G gave a self-cleavage of 0.38. A3G G22C A47U gave a self-cleavage of 0.38. With A3G G22C A47U U72C the self-cleavage was 0.22. In the case of A3G G22U G61A C79A, the self-cleavage is reported as 0.33. Work on A3G G22U U43A U76A yielded a self-cleavage of 0.27. Work on A3G G24A A35G yielded a self-cleavage of 0.26. A3G G24A U26A C27U U60C showed a self-cleavage of 0.13. In the case of A3G G24A U26A G63A U78C, the self-cleavage is reported as 0.1. A3G G24A U26C G70A showed a self-cleavage of 0.23. A3G G24A U51A A57G U60A C62U showed a self-cleavage of 0.05. For A3G G24A U66C U67C, the self-cleavage was 0.13. In the case of A3G G24A U69C U72C, the self-cleavage is reported as 0.34. With A3G G24C A57G G63A U74C the self-cleavage was 0.17. In the case of A3G G30A A35U, the self-cleavage is reported as 0.09. A3G G30A A35U U43C U48C U54A A57G gave a self-cleavage of 0.19. A3G G30A C40A showed a self-cleavage of 0.12. For A3G G30A G36U C40U A57G U74A, the self-cleavage was 0.21. A3G G30A U43C U48A gave a self-cleavage of 0.05. A3G G30A U54G A65G A77G showed a self-cleavage of 0.04. Variant A3G G30A U80C has a self-cleavage of 0.59. For A3G G30C A47C, the self-cleavage was 0.32. Variant A3G G30U U31C has a self-cleavage of 0.47. A3G G33A A47U A75C gave a self-cleavage of 0.39. Work on A3G G33A C34G U69A yielded a self-cleavage of 0.56. In the case of A3G G33A G46U U69C U72C, the self-cleavage is reported as 0.19. For A3G G33A U43C A75G, the self-cleavage was 0.18. Work on A3G G33A U74C yielded a self-cleavage of 0.74. Work on A3G G33U A35U A65G yielded a self-cleavage of 0.26. Work on A3G G33U U41C A57G yielded a self-cleavage of 0.74. A3G G33U U54C U66A U69A showed a self-cleavage of 0.16. A3G G36A U54C A56U G63A gave a self-cleavage of 0.18. For A3G G36A U54C C68A, the self-cleavage was 0.17. Work on A3G G36U A45G U66C yielded a self-cleavage of 0.14. A3G G36U A57G U72A gave a self-cleavage of 0.2. For A3G G36U C44U U54C U60C, the self-cleavage was 0.09. Variant A3G G36U U51C U54C has a self-cleavage of 0.28. A3G G42A U43C C44U gave a self-cleavage of 0.62. Work on A3G G42A U60C U80C yielded a self-cleavage of 0.13. Work on A3G G46A U69G yielded a self-cleavage of 0.16. A3G G46C A57U showed a self-cleavage of 0.17. With A3G G46U A65G the self-cleavage was 0.32. In the case of A3G G46U U80G, the self-cleavage is reported as 0.37. A3G G52A U60C showed a self-cleavage of 0.34. In the case of A3G G52A U66C U72C, the self-cleavage is reported as 0.51. In the case of A3G G52C A56G U60C, the self-cleavage is reported as 0.43. For A3G G52C U80A, the self-cleavage was 1.09.
